# Test results taken from the supplement of paper PMC9446081.
# Screen size: about 39,000 compounds; about 220 (0.56%) showed activity. The list shows a part of the results.
# System: Escherichia coli K-12 BW25113
# Assay: relative growth (OD600 normalised to plate interquartile mean) (fraction); higher = less growth inhibition, active = 0.2 or less
# Details: 50 µM; LB; incubation time: overnight (16-24 h)
# 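Also: static incubation at 37 °C against the wild-type strain, values averaged over two biological replicates.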
row,Structure (SMILES),relative growth
1,CO[C@@H]1CN(C)C(=O)c2ccc(NC(=O)NC(C)C)cc2OC[C@@H](C)N(Cc2ccc(-c3ccccn3)cc2)C[C@@H]1C,inactive: 1.01
2,C[C@H](CO)N1C[C@H](C)[C@H](CN(C)CC2CC2)Oc2ccc(NC(=O)Cn3cnnn3)cc2C1=O,inactive: 1.01
3,C[C@H](NC(=O)C[C@@H]1C[C@H]2c3cc(NC(=O)Nc4ccc(C(F)(F)F)cc4)ccc3O[C@H]2[C@@H](CO)O1)c1ccccc1,inactive: 1.01
4,O=C1CN(S(=O)(=O)Cc2ccccc2)C[C@H]2[C@H](c3ccc(C#Cc4ccc(F)cc4)cc3)[C@H](CO)N12,inactive: 1.01
5,Cc1noc(C)c1NC(=O)Nc1ccc2c(c1)CC(=O)N([C@H](C)CO)C[C@H](C)[C@H](CN(C)Cc1ccc(C(=O)Nc3ccccc3N)cc1)O2,inactive: 1.01
6,Cc1noc(C)c1S(=O)(=O)N(C)C[C@H]1OCCCC[C@@H](C)Oc2ccc(NC(=O)Nc3ccc(C(F)(F)F)cc3)cc2C(=O)N([C@@H](C)CO)C[C@@H]1C,inactive: 1.04
7,CC(C)CCCC(C)C1CCC2C3CC=C4CC(O)CCC4(C)C3CCC12C (centres undefined),inactive: 1.02
8,COc1ccc(S(=O)(=O)Nc2ccc3c(c2)C(=O)N([C@@H](C)CO)C[C@@H](C)[C@@H](CN(C)Cc2ccncc2)O3)cc1,inactive: 0.983
9,N#C[C@@H]1N[C@@H](CO)[C@@H]1c1ccccc1,inactive: 0.981
10,CC(C)NC(=O)N(C)C[C@@H]1OCCCC[C@H](C)Oc2ccc(NS(C)(=O)=O)cc2C(=O)N([C@@H](C)CO)C[C@@H]1C,inactive: 0.992
11,CC(C)C[C@H]1NC(=O)[C@@H](CCCN)NC(=O)[C@H](C(C)C)NC(=O)[C@H]2CCCN2C(=O)[C@@H](Cc2ccccc2)NC(=O)[C@@H](CC(C)C)NC(=O)[C@@H](CCCN)NC(=O)[C@H](C(C)C)NC(=O)[C@H]2CCCN2C(=O)[C@@H](Cc2ccccc2)NC1=O,inactive: 1.01
12,N[C@H]1CCCN(c2ncccn2)C1,inactive: 1.04
13,C[C@H]1CN([C@@H](C)CO)S(=O)(=O)c2ccc(C#Cc3ccc(F)cc3)cc2O[C@H]1CN(C)C(=O)c1ccccn1,inactive: 1
14,CC(=O)N(C)C[C@H]1Oc2cc(C#CCN(C)C)ccc2S(=O)(=O)N([C@@H](C)CO)C[C@@H]1C,inactive: 1
15,C=CCOC(=O)[C@H]1[C@@H]2C(=O)O[C@@H](c3ccccc3)[C@@H](c3ccccc3)N2[C@@H](c2cccc(OCCOC(=O)NCCCCCC(=O)NO)c2)[C@@]12C(=O)Nc1ccc(I)cc12,inactive: 0.988
16,Cc1ccc(S(=O)(=O)Nc2ccc3c(c2)C(=O)N([C@@H](C)CO)C[C@@H](C)[C@@H](CN(C)C(=O)Nc2ccc4c(c2)OCO4)OCCCC[C@@H](C)O3)cc1,inactive: 1.04
17,Cc1noc(C)c1S(=O)(=O)Nc1ccc2c(c1)C(=O)N([C@H](C)CO)C[C@@H](C)[C@@H](CN(C)C(=O)Nc1cccc3ccccc13)OCCCC[C@@H](C)O2,inactive: 1.01
18,C[C@H]1CCCCO[C@H](CN(C)C(=O)C2CCCCC2)[C@@H](C)CN([C@@H](C)CO)C(=O)c2cc(NC(=O)c3ccccc3)ccc2O1,inactive: 0.978
19,C[C@@H]1CCCCO[C@H](CN(C)Cc2ccncc2)[C@H](C)CN([C@H](C)CO)C(=O)c2cc(NC(=O)C3CCCCC3)ccc2O1,inactive: 0.986
20,C[C@H]1CN([C@@H](C)CO)C(=O)c2cccc(NC(=O)CCCCCC(=O)Nc3ccccc3N)c2O[C@@H]1CN(C)C(=O)Nc1ccc(C(F)(F)F)cc1,inactive: 0.953

row,Structure (SMILES),relative growth
1,COc1cccc(S(=O)(=O)N(C)C[C@@H]2Oc3cc(C#CCN(C)C)ccc3S(=O)(=O)N([C@@H](C)CO)C[C@@H]2C)c1,inactive: 1.02
2,CC(C)NC(=O)Nc1ccc2c(c1)C(=O)N([C@@H](C)CO)C[C@H](C)[C@@H](CN(C)S(=O)(=O)c1cccs1)O2,inactive: 1.01
3,O=C1O[C@H](c2ccccc2)[C@H](c2ccccc2)N2[C@H]1[C@@H](C(=O)O)[C@]1(C(=O)Nc3ccc(Cl)cc31)[C@H]2c1ccc(F)cc1,inactive: 0.771
4,COc1ccccc1CNC(=O)C[C@@H]1CC[C@H]2[C@@H](COC[C@@H](O)CN2C(=O)Nc2ccc(F)cc2)O1,inactive: 0.966
5,CC=Cc1ccc2n(c1=O)C[C@H]1[C@H](CO)[C@@H](C(=O)NCCc3cn(C)cn3)[C@@H]2N1C(=O)C1CC1,inactive: 1
6,C[C@@H]1CCCCO[C@H](CN(C)C(=O)Nc2cccc3ccccc23)[C@@H](C)CN([C@H](C)CO)C(=O)c2cc(NC(=O)Nc3ccc4c(c3)OCO4)ccc2O1,inactive: 1.02
7,C[C@@H]1CCCCO[C@H](CN(C)C(=O)Nc2ccc(F)cc2)[C@@H](C)CN([C@H](C)CO)C(=O)c2cc(NC(=O)CCC(F)(F)F)ccc2O1,inactive: 1
8,O=C(C[C@@H]1CC[C@H](NC(=O)CN2CCOCC2)[C@H](CO)O1)NCCc1ccncc1,inactive: 1.02
9,COCC(=O)N1CC[C@]2(CC1)CN([C@@H](CO)c1c2c2ccc(cc2n1C)OC)C(=O)Nc1ccccc1F,inactive: 1.04
10,C[C@H](CO)N1C[C@H](C)[C@@H](CN(C)C(=O)Nc2ccc(C(F)(F)F)cc2)Oc2c(NC(=O)Nc3ccccc3)cccc2C1=O,inactive: 0.943
11,O=C(C[C@@H]1C=C[C@@H](NC(=O)c2cccc(F)c2)[C@H](CO)O1)NCCN1CCCC1,inactive: 1.02
12,Cc1noc(C)c1S(=O)(=O)Nc1cccc2c1O[C@H](CN(C)S(=O)(=O)c1ccc(F)cc1)[C@@H](C)CN([C@H](C)CO)C2=O,inactive: 0.984
13,COc1cccc(NC(=O)N(C)C[C@H]2Oc3cc(C#CC4(O)CCCC4)ccc3S(=O)(=O)N([C@@H](C)CO)C[C@H]2C)c1,inactive: 0.977
14,COc1ccc(S(=O)(=O)N(C)C[C@H]2Oc3c(cccc3N(C)C)C(=O)N([C@@H](C)CO)C[C@@H]2C)cc1,inactive: 1.02
15,COc1ccc(S(=O)(=O)N(C)C[C@@H]2Oc3c(NC(=O)Nc4cccc5ccccc45)cccc3C(=O)N([C@@H](C)CO)C[C@H]2C)cc1C,inactive: 0.97
16,CCCNC(=O)C[C@@H]1CC[C@@H]2[C@H](COC[C@H](O)CN2S(=O)(=O)c2ccc(Oc3ccccc3)cc2)O1,inactive: 1.03
17,C[C@@H]1CN([C@@H](C)CO)C(=O)Cc2cc(NC(=O)Cc3ccccc3)ccc2O[C@H]1CN(C)Cc1ccc(-c2ccccc2)cc1,inactive: 0.978
18,O=C(O)CCCN1C(=O)CSC1=S,inactive: 0.972
19,Cc1ccc(S(=O)(=O)Nc2ccc3c(c2)C(=O)N([C@H](C)CO)C[C@@H](C)[C@H](CN(C)C(=O)Nc2cccc4ccccc24)O3)cc1,inactive: 1.02
20,N#C[C@@H]1N[C@H](CO)[C@@H]1c1ccccc1,inactive: 0.975

row,Structure (SMILES),relative growth
1,NC(=O)[C@H]1C[C@@H]2C=C[C@H]1C2,inactive: 0.999
2,COC(=O)c1c2oc(c1C(=O)OC)C(=O)N(C)Cc1cn(nn1)C[C@@H](C)NC(=O)N[C@H](CO)CC2,inactive: 0.987
3,O=C(Cc1ccncc1)NCC[C@H]1CC[C@H](NC(=O)C2CCOCC2)[C@@H](CO)O1,inactive: 1.01
4,COc1ccc(S(=O)(=O)N(C)C[C@@H]2Oc3ccc(NS(=O)(=O)c4ccc(F)cc4)cc3CC(=O)N([C@H](C)CO)C[C@H]2C)cc1,inactive: 0.995
5,Cc1noc(C)c1NC(=O)N(C)C[C@@H]1Oc2ccc(NC(=O)CCN3CCOCC3)cc2C(=O)N([C@@H](C)CO)C[C@@H]1C,inactive: 1
6,C[C@H](CO)N1C[C@H](C)[C@H](CN(C)S(C)(=O)=O)Oc2ccc(NC(=O)CCC(F)(F)F)cc2C1=O,inactive: 1.02
7,O=C(C[C@H]1C[C@H]2c3cc(NS(=O)(=O)c4ccc(F)cc4)ccc3O[C@H]2[C@@H](CO)O1)NC1CCCCC1,inactive: 1.04
8,COc1ccc(S(=O)(=O)N(C)C[C@@H]2Oc3ccc(N(C)C)cc3CC(=O)N([C@H](C)CO)C[C@H]2C)cc1,inactive: 1.02
9,O=C1C(O)=C(O)C(=O)C(O)=C1O,inactive: 0.951
10,C[C@@H]1CCCCO[C@H](CN(C)C(=O)Nc2ccccc2)[C@H](C)CN([C@H](C)CO)C(=O)c2cc(NC(=O)Nc3ccccc3)ccc2O1,inactive: 1.03
11,C[C@@H]1CN([C@H](C)CO)C(=O)c2cccc(NS(=O)(=O)c3ccc(F)cc3)c2O[C@@H]1CN(C)S(=O)(=O)c1ccccc1,inactive: 0.986
12,C[C@@H]1CN([C@@H](C)CO)C(=O)c2cccc(NC(=O)c3cnccn3)c2O[C@H]1CN(C)S(=O)(=O)c1cccs1,inactive: 1.01
13,C[C@H](O)C#Cc1cnc2c(c1)C(=O)N([C@H](C)CO)C[C@H](C)[C@H](CN(C)Cc1cncnc1)O2,inactive: 0.916
14,CCCNC(C)C(=O)Nc1ccccc1C.Cl (centres undefined),inactive: 1.11
15,c1ccc(Oc2nnc(-c3ccccc3)c3ccccc23)cc1,inactive: 0.997
16,CC(C)N1CC2(CN([C@@H](C)c3ccc(Cl)cc3)C2)Oc2c(NC(=O)c3ccncc3)cccc2C1=O,inactive: 1.01
17,C[C@@H]1CN([C@H](C)CO)C(=O)Cc2cc(NC(=O)CCCCCC(=O)Nc3ccccc3N)ccc2O[C@H]1CN(C)S(=O)(=O)c1cn(C)cn1,inactive: 0.991
18,COc1ccc(S(=O)(=O)Nc2ccc3c(c2)C(=O)N([C@@H](C)CO)C[C@@H](C)[C@H](CN(C)C(=O)C2CCCCC2)OCCCC[C@@H](C)O3)cc1,inactive: 0.945
19,C[C@@H]1CCCCO[C@@H](CN(C)Cc2ccncc2)[C@H](C)CN([C@@H](C)CO)C(=O)c2cc(NC(=O)CCCCCC(=O)Nc3ccccc3N)ccc2O1,inactive: 0.96
